Assay results from patent publication US20220411521A1 (Ablynx, published 2022).

Experiments:
human GITR [1] = biological target: T1, human GITR (human, UniProt Q9Y5U5 26-241); assay: cell-based or functional assay
T1 sequence: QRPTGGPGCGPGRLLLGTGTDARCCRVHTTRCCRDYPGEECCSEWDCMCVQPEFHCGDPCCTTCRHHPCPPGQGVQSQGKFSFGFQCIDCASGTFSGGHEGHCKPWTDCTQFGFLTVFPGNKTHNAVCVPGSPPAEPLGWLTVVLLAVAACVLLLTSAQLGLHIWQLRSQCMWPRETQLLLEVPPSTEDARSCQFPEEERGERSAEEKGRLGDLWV

human GITR [2] = biological target: T1, human GITR; assay: cell-based or functional assay; remark: listed apart in the source
human GITR [3] = biological target: T1, human GITR; assay: flow cytometry on HEK293_NFkB-Nluc2P human GITR cells

EC50, HEK293 human GITR NF-kB luc reporter (single cell clone) (human GITR [1]): 0.0152 nM | EC50, HEK293 human GITR NF-kB luc reporter (single cell clone) (human GITR [2]): 0.0189 nM | EC50 (human GITR [3]): 0.0675 nM
B1: A-0231-00_TP008 (other)
heavy: EVQLVESGGGLVQPGGSLRLSCAASETIFSIDSMAWYRQAPGKQRELVAAITGGGSPNYADSVKGRFTISSDVAKRTVYLQMNSLKPEDTAVYYCNAEGQAGWGTALMDYWGKGTLVTVSS[… human IgG1 constant region …]
light: EVQLVESGGGLVQPGGSLRLSCAASETIFSIDSMAWYRQAPGKQRELVAAITGGGSPNYADSVKGRFTISSDVAKRTVYLQMNSLKPEDTAVYYCNAEGQAGWGTALMDYWGKGTLVTVSSRTVAAPSVFIFPPSDEQLKSGTASVVCLLNNFYPREAKVQWKVDNALQSGNSQESVTEQDSKDSTYSLSSTLTLSKADYEKHKVYACEVTHQGLSSPVTKSFNRGEC
notes: Two heavy chains (5A03 fused to human IgG1 CH1-CH3) and two light chains (5A03 fused to human kappa CL); Both entries as printed start with a secretion leader; also called Nanobody-human IgG1 chimera A-0231-00_TP008; anti-GITR NB-human IgG1

Read-outs that look alike come from different tables or passages of the source.
